# Data: patent EP2093218A1, “Arylalkyl substituted imidazolidinones” (Fariello, Ruggero, priority 2008, dated 2009)
# System: site 2 of rat brain sodium channels
# Conditions: @ 30 uM
smiles,measurement,value
"C[C@H]1C(=O)NC(C)(C)N1Cc1ccc(OCc2cccc(F)c2)cc1 [Example 1, (S)-(-)-1-[4-(3-Fluoro-benzyloxy)-benzyl]-2,2,5-trimethyl-imidazolidin-4-one]",inhibition of the binding of [^3H]-batrachotoxin at site 2 of rat brain sodium channels,83%
